From the supplement of paper PMC4604168 (melanoma cell lines)
Some of the results follow. Repeats are few or missing, and single values can be far off.

Assays:
Assay in all cases: cell count relative to DMSO control; melanoma cells; higher = more viable cells
Conditions in all cases: library dose: low library concentration; 72 h
MZ2-MEL = system: MZ2-MEL
MeWo = system: MeWo
RPMI7951 = system: RPMI7951
RVH-421 = system: RVH-421
SkMel28 = system: SkMel28
SkMel2 = system: SkMel2
SkMel30 = system: SkMel30
SkMel5 = system: SkMel5
UACC257 = system: UACC257
UACC62 = system: UACC62
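Further: cell number obtained by counting DAPI-stained nuclei in high-throughput microscope images with image analysis software, screen run in 1,536-well plates.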

Compound | cell count (MZ2-MEL) [%] | cell count (MeWo) [%] | cell count (RPMI7951) [%] | cell count (RVH-421) [%] | cell count (SkMel28) [%] | cell count (SkMel2) [%] | cell count (SkMel30) [%] | cell count (SkMel5) [%] | cell count (UACC257) [%] | cell count (UACC62) [%]
COc1ccc(C2=N[C@@H](c3ccc(Cl)cc3)[C@@H](c3ccc(Cl)cc3)N2C(=O)N2CCNC(=O)C2)c(OC(C)C)c1 [Nutlin-3] + O=C(Nc1cccc(Cl)c1)Nc1ncc(CCNc2ncnc3ccsc23)s1 [SNS314] (first compound 0.1 µM, partner dose 0.0008 µM) | 104 | 108 | 113 | 91.1 | 87.8 | 93.6 | 112 | 111 | 54.3 | 84.9
CC(C)C[C@H](NC(=O)[C@H](Cc1ccccc1)NC(=O)c1cnccn1)B(O)O [Bortezomib] + COc1cc(Nc2ncc(F)c(Nc3ccc4c(n3)NC(=O)C(C)(C)O4)n2)cc(OC)c1OC [Tamatinib] (first compound 0.001 µM, partner dose 0.4 µM) | 74.4 | 86.7 | 101 | 60 | 95.4 | 99.8 | 105 | 86.8 | 67.2 | 90
CC(C)C[C@H](NC(=O)[C@H](Cc1ccccc1)NC(=O)c1cnccn1)B(O)O [Bortezomib] + COc1ccc(COc2ccc(Cc3cnc(N)nc3N)cc2OC)cc1 [GW2580] (first compound 0.001 µM, partner dose 1 µM) | 88.4 | 89.7 | 82.3 | 109 | 81.9 | 96.5 | 83.2 | 84.4 | 77 | 73.6
Cc1cn(-c2cc(NC(=O)c3ccc(C)c(Nc4nccc(-c5cccnc5)n4)c3)cc(C(F)(F)F)c2)cn1 [nilotinib] + COc1cc(N2CCC(N3CCN(C)CC3)CC2)ccc1Nc1ncc(Cl)c(Nc2ccccc2S(=O)(=O)C(C)C)n1 [NVP-TAE684] (first compound 0.2 µM, partner dose 0.08 µM) | 92.6 | 91.4 | 92 | 97.3 | 88.2 | 77.8 | 69.7 | 86 | 52.5 | 86.4
CC(C)C[C@H](NC(=O)[C@H](Cc1ccccc1)NC(=O)c1cnccn1)B(O)O [Bortezomib] + O=C(Nc1ccccc1)c1cc([N+](=O)[O-])ccc1Cl [GW9662] (first compound 0.001 µM, partner dose 2 µM) | 79.8 | 79.4 | 87.1 | 170 | 96.4 | 100 | 79.7 | 92.1 | 84.6 | 65.9
Cn1c(=O)n(-c2ccc(C(C)(C)C#N)cc2)c2c3cc(-c4cnc5ccccc5c4)ccc3ncc21 + Cn1cc(/C=C2\C(=O)Nc3cccnc32)c2ccccc21 [GW441756] (first compound 0.004 µM, partner dose 0.4 µM) | 100 | 80.7 | 94.4 | 94.1 | 79.5 | 100 | 89.6 | 91.9 | 80 | 87.5
CC(C)C[C@H](NC(=O)[C@H](Cc1ccccc1)NC(=O)c1cnccn1)B(O)O [Bortezomib] + CCc1ccc(CCOc2ccc(CC3SC(=O)NC3=O)cc2)nc1 [pioglitazone] (first compound 0.001 µM, partner dose 2 µM) | 75.1 | 66.6 | 53 | 59.3 | 76.6 | 83.5 | 79.4 | 102 | 86.4 | 77.3
Cc1cn(-c2cc(NC(=O)c3ccc(C)c(Nc4nccc(-c5cccnc5)n4)c3)cc(C(F)(F)F)c2)cn1 [nilotinib] + COc1ccc2c(c1)CCC1C2CCC2(C)C(NCCCCCCN3C(=O)C=CC3=O)CCC12 [U73122] (first compound 0.2 µM, partner dose 0.4 µM) | 89 | 115 | 76.4 | 93.6 | 116 | 90.7 | 87.1 | 122 | 106 | 96.5
Cc1cn(-c2cc(NC(=O)c3ccc(C)c(Nc4nccc(-c5cccnc5)n4)c3)cc(C(F)(F)F)c2)cn1 [nilotinib] + Cn1cc(/C=C2\C(=O)Nc3cccnc32)c2ccccc21 [GW441756] (first compound 0.2 µM, partner dose 0.4 µM) | 91.6 | 107 | 102 | 290 | 85.7 | 96.8 | 106 | 76.6 | 76.9 | 96.7
COc1ccc(C2=N[C@@H](c3ccc(Cl)cc3)[C@@H](c3ccc(Cl)cc3)N2C(=O)N2CCNC(=O)C2)c(OC(C)C)c1 [Nutlin-3] + COc1cc2ncnc(Nc3ccc(Oc4ccccc4)cc3)c2cc1OC [SrcI1] (first compound 0.1 µM, partner dose 2 µM) | 90.8 | 92 | 107 | 114 | 69.5 | 101 | 81.2 | 94.3 | 81.4 | 96.1
Cn1c(=O)n(-c2ccc(C(C)(C)C#N)cc2)c2c3cc(-c4cnc5ccccc5c4)ccc3ncc21 + c1cc(-c2cnn3cc(-c4ccc(OCCN5CCCCC5)cc4)cnc23)ccn1 [Dorsomorphin] (first compound 0.004 µM, partner dose 0.4 µM) | 96 | 72.7 | 78.7 | 103 | 73.5 | 102 | 75.7 | 101 | 85.5 | 86.8
Cn1c(=O)n(-c2ccc(C(C)(C)C#N)cc2)c2c3cc(-c4cnc5ccccc5c4)ccc3ncc21 + CC1(C)NC(=O)N(c2ccc([N+](=O)[O-])c(C(F)(F)F)c2)C1=O [nilutamide] (first compound 0.004 µM, partner dose 1 µM) | 97.5 | 84.7 | 88.1 | 99.1 | 56 | 94.3 | 84.6 | 87.9 | 92.4 | 80.6
Cc1cc(Nc2cc(N3CCN(C)CC3)nc(/C=C/c3ccccc3)n2)n[nH]1 + CCN(CC)CCCCNc1ncc2cc(-c3cc(OC)cc(OC)c3)c(NC(=O)NC(C)(C)C)nc2n1 [PD173074] (first compound 0.04 µM, partner dose 0.1 µM) | 107 | 118 | 88.7 | 75.1 | 85.8 | 108 | 97.6 | 97.5 | 90.9 | 94.3
CC(C)C[C@H](NC(=O)[C@H](Cc1ccccc1)NC(=O)c1cnccn1)B(O)O [Bortezomib] + COc1ccc2c(c1)CCC1C2CCC2(C)C(NCCCCCCN3C(=O)C=CC3=O)CCC12 [U73122] (first compound 0.001 µM, partner dose 0.4 µM) | 72.2 | 83.9 | 64.4 | 67 | 93.9 | 98.2 | 77.6 | 92.4 | 71.5 | 65.4
Cn1c(=O)n(-c2ccc(C(C)(C)C#N)cc2)c2c3cc(-c4cnc5ccccc5c4)ccc3ncc21 + N#Cc1c(O)c2c(-c3ccc(-c4ccccc4O)cc3)csc2[nH]c1=O [A769662] (first compound 0.004 µM, partner dose 2 µM) | 98.9 | 90.9 | 108 | 93.4 | 66.5 | 93.5 | 64.9 | 103 | 115 | 99
Cn1c(=O)n(-c2ccc(C(C)(C)C#N)cc2)c2c3cc(-c4cnc5ccccc5c4)ccc3ncc21 + C[C@@H]1CCN(C(=O)CC#N)C[C@@H]1N(C)c1ncnc2[nH]ccc12 [CP690550] (first compound 0.004 µM, partner dose 1 µM) | 106 | 90.3 | 113 | 87 | 92.8 | 95.1 | 79.5 | 109 | 91.6 | 120
Cc1cn(-c2cc(NC(=O)c3ccc(C)c(Nc4nccc(-c5cccnc5)n4)c3)cc(C(F)(F)F)c2)cn1 [nilotinib] + COc1cc(Nc2ncc(F)c(Nc3ccc4c(n3)NC(=O)C(C)(C)O4)n2)cc(OC)c1OC [Tamatinib] (first compound 0.2 µM, partner dose 0.4 µM) | 88.5 | 82.4 | 87.7 | 117 | 80.7 | 91.3 | 84.8 | 86.9 | 73.7 | 86.2
Cn1c(=O)n(-c2ccc(C(C)(C)C#N)cc2)c2c3cc(-c4cnc5ccccc5c4)ccc3ncc21 + CC(C)CCN1c2nc(Nc3cc(F)c(O)c(F)c3)ncc2N(C)C(=O)C1C [BID1870] (first compound 0.004 µM, partner dose 0.2 µM) | 106 | 98.8 | 111 | 106 | 87.6 | 94.1 | 64.2 | 108 | 89.7 | 70.5
Cc1cn(-c2cc(NC(=O)c3ccc(C)c(Nc4nccc(-c5cccnc5)n4)c3)cc(C(F)(F)F)c2)cn1 [nilotinib] + Cc1ccc(NC(=O)c2cccc(N(C)C)c2)cc1NC(=O)c1ccc(O)cc1 [ZM336372] (first compound 0.2 µM, partner dose 2 µM) | 79.8 | 107 | 91.7 | 91.9 | 82.5 | 102 | 83.6 | 110 | 85 | 103
CC(C)C[C@H](NC(=O)[C@H](Cc1ccccc1)NC(=O)c1cnccn1)B(O)O [Bortezomib] + Cn1cc(/C=C2\C(=O)Nc3cccnc32)c2ccccc21 [GW441756] (first compound 0.001 µM, partner dose 0.4 µM) | 47.2 | 76.9 | 54.8 | 36.6 | 66.9 | 103 | 57.8 | 85.3 | 65.7 | 71.5
COc1ccc(C2=N[C@@H](c3ccc(Cl)cc3)[C@@H](c3ccc(Cl)cc3)N2C(=O)N2CCNC(=O)C2)c(OC(C)C)c1 [Nutlin-3] + COc1cc(N2CCC(N3CCN(C)CC3)CC2)ccc1Nc1ncc(Cl)c(Nc2ccccc2S(=O)(=O)C(C)C)n1 [NVP-TAE684] (first compound 0.1 µM, partner dose 0.08 µM) | 97.5 | 88.3 | 90.4 | 83.2 | 93.7 | 84.3 | 79.8 | 102 | 82.2 | 73.3
